Data: PubChem BioAssay AID1794842 (National Center for Advancing Translational Sciences (NCATS), 2023)
In all, about 2,800 compounds went through this assay and fewer than 10 were called active. Calls follow the shape of the dose curve; as a rule, active = well fitted curve in the direction sought with a large enough effect; inconclusive = small, poorly fitted or top-dose-only effect, or another doubt; inactive = no such curve, though single readings can be large or run the other way. Some of the results follow.

Target: Metallo-beta-lactamase type 2 (Klebsiella pneumoniae) (UniProt C7C422)
Assay: qHTS to identify inhibitors of the New Delhi Metallo-beta-lactamase (NDM): Meropenem screen against the machine-based learning selections. Also: % of control where 0% means no effect.
Details: Purified NDM-1, meropenem hydrolysis, absorbance 300 nm; at 38.4 µM (top of the series) unless noted
In short: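 Hydrolysis by 2 nM NDM-1 was followed by absorbance after >30 min compound preincubation in HEPES pH 7.0 buffer with 1 uM Zn2SO4. For nitrocefin (16.7 uM, 15 min, 485 nm) and meropenem (50 uM, 30 min, 300 nm), each substrate ran on separate plates.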

Chain of UniProt C7C422 (C7C422 whole entry, looked up): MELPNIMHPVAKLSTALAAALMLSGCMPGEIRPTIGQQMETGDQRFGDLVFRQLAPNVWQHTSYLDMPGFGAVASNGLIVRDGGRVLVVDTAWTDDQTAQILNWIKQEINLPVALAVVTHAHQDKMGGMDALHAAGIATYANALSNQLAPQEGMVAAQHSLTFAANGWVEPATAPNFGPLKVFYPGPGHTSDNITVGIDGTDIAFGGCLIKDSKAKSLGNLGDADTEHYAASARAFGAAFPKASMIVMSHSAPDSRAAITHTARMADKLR

Activity change, negative = inhibition, inactive:
Cc1ccccc1-c1cnc2[nH]cc(CC(=O)NCc3ccco3)c2c1 2.07% [at 57.5 µM]
COCC1CN(C(C)=O)CC12CCN(Cc1cccc(C#N)c1)CC2 (stereo unspecified) 0.783%
CN1Cc2ccc(NCc3ccccc3)nc2C(C)(C(=O)NCCc2cnc[nH]2)C1 (stereo unspecified) 7.8% [at 57.5 µM]
Cc1cc(C(=O)N[C@@H]2CCC[C@@H](C(=O)N3CCN(C)CC3)CC(=O)N(C)C2)no1 1.85% [at 57.5 µM]
C[C@]1(O)CCN(C(=O)CC(c2ccccc2)c2ccccc2)C[C@@H]1O 0.134%
Cc1ccc(S(=O)(=O)N2C[C@@H]3OCC(=O)N(Cc4ccc(OC(F)(F)F)cc4)[C@@H]3C2)cc1 -1.95%
COc1ccc(CN2Cc3[nH]cnc3C[C@H]2C(=O)NCc2ccco2)cc1 7.49% [at 57.5 µM]
CCS(=O)(=O)N1CCC(CC(=O)NCc2ccccc2)C1 (stereo unspecified) -1.58%
CNC(=O)N1CCOc2ccc(CCC(=O)NCC3CC3)cc2C1 0.125%
Cn1ccnc1CN1C[C@@H](F)[C@@H](OCc2nc3ccc(C(F)(F)F)cc3[nH]2)C1 7.16% [at 57.5 µM]
O=C(c1cc2cn(C3CC3)cc2s1)N1CCc2ccccc2C1 6.46%
COc1ncccc1C(=O)N1CCc2c(nc(-c3cccnc3)[nH]c2=O)C1 3.18%
O=C(Nc1ccc([C@H]2OCC(=O)N(Cc3cccnc3)[C@@H]2CO)cc1)c1ccnc(Cl)c1 3.73%
CC(=O)NC1CCN(Cc2nc(-c3sccc3C)oc2C)CC1 0.509%
Cc1ccc(C(=O)N2CCOC(c3ccc(Cl)c(Cl)c3)C2)c(=O)n1C (stereo unspecified) -1.18%
O=C(O)c1cccc(-c2n[nH]c3c2CC(=O)N(CCOc2ccccc2)C3)c1 8.03% [at 57.5 µM]
Cc1oc(C(O)c2ccccc2F)nc1C(=O)Nc1ccccc1C(N)=O (stereo unspecified) 5.65% [at 57.5 µM]
Cc1ccoc1-c1nc2ccncc2[nH]1 19.5% [at 76.7 µM]
O=C1CCCN1CCCN1C(=O)[C@H]2CN(Cc3ccc(F)c(Cl)c3)C[C@H]2C1=O -0.265%
COCCN1C(=O)[C@@H]2C[C@@H](CN2C(=O)NCc2ccccc2)Oc2ccccc21 0.0797% [at 57.5 µM]
COc1cccc(CC(=O)NC2CCN(c3cnn(C)c(=O)c3)CC2)c1 5.15%
CC1=C[C@@H](CC#N)[C@H](C(C)C)C[C@H]1CC(=O)NC1CC1 -1.03% [at 76.7 µM]
CN(CC1CCOC1)C(=O)Nc1cccc(Br)c1 (stereo unspecified) -0.357%
C=CCN(C)C(=O)[C@@H](C)C1CC[C@@]2(C)Cc3sc(-c4cccnc4)nc3[C@@H](C)[C@@H]2[C@H]1O (stereo partly specified) 9.88% [at 57.5 µM]
COc1ccc(C(=O)N2CCc3ccc(C(=O)O)cc32)cc1 6.76%
O=C(c1ccc(N2CCC(NCC(c3ccccc3)c3ccccc3)CC2)cc1)N1CCCC(O)C1 (stereo unspecified) -1.88%
c1cc(N2CCOCC2)ncc1-c1noc([C@@H]2CCCN2C2CCOCC2)n1 33.7% [at 57.5 µM]
COCC1(c2nc(C3CCOCC3)nn2-c2ccccc2)CCC1 0.524%
CN(Cc1ccccc1)C(=O)[C@@H]1Cc2nc[nH]c2CN1C(=O)CC(C)(C)CC(=O)O 22.3% [at 57.5 µM]
CN(CC1CCOCC1)C(=O)Nc1ccc(Cl)cc1 -1.44%
Cc1ccc(NC(=O)N2CCCC2c2nncn2C2CCCC2)cc1F (stereo unspecified) -1.18%
COc1cccc(-c2cc(C(=O)NCCOc3ccccc3)[nH]n2)c1 1%
O=C(Nc1cccnc1)N1CCOC[C@H](Oc2ccccc2)C1 2.3% [at 57.5 µM]
COC[C@H]1C[C@@H](NCc2nccs2)[C@H](O)[C@@H]1O 45.4% [at 57.5 µM]
Cc1cc(=O)n(CC(=O)Nc2cccc(F)c2)c(N2CCc3ccccc3C2)n1 1.45%
O=S(=O)(c1cccs1)N1CCC(n2cnnc2-c2ccccc2)CC1 -0.554%
O=C(c1cc2ccccc2[nH]1)N1CCNc2cnc(Nc3ccccc3)nc2C1 13% [at 57.5 µM]
Cc1ccc(F)c(C(=O)N[C@H](Cc2ccccc2)C2CC(O)C2)c1Cl (stereo partly specified) 0.198%
Nc1cc(N2CC[C@@H](N3CCN(CCc4ccccc4)CC3)[C@H](O)C2)nc(N)n1 -0.875%
Cn1ccnc1CN1C(=O)CO[C@H](c2ccc(NC(=O)CC(C)(C)C)cc2)[C@H]1CO 0.61% [at 57.5 µM]
O=C(NCC1(O)CCCCC1)C1CCN(c2nc(-c3ccccc3)nc3c2CCC3)CC1 -4.27%
CCN(C)C(=O)Cn1ncc(N2CCOC(CCN)C2)cc1=O (stereo unspecified) 41%
COC(=O)[C@H](Cc1ccc(OC)cc1)NC(=O)[C@H]1CN(C(=O)c2ccc(N(C)C)cc2)CCN1C(=O)C1CCCCC1 7.71%
C=CCC1(CO)CCCN(C(=O)c2cccc(N3CCNC3=O)c2)C1 (stereo unspecified) 0.89%
CN1c2cccnc2CN(Cc2cccc(Cl)c2)CC[C@H]1CO 0.122% [at 57.5 µM]
COc1ccc(-c2ccnc(N[C@H]3CO[C@H]4[C@@H]3OC[C@H]4OCC(N)=O)n2)cc1 6.67% [at 57.5 µM]
Fc1cccc(CN2CCC(Cc3nc(-c4ccncc4)n[nH]3)C2)c1 (stereo unspecified) 1.5%
O=C(NCc1ccc(-c2cnc3c(Oc4ccccc4)nccn23)cc1)c1cccc(O)c1 4.69% [at 57.5 µM]
CCOc1cc(=O)n2c(c1C(=O)Nc1ccc(F)c(C)c1)CCCC2 1.14%
CC(C)CN1CC[C@H](c2nc3ncccc3[nH]2)C1 -0.0731% [at 76.7 µM]
CCOc1cc(CN2CCC(C)(c3noc(C4CCOCC4)n3)CC2)ccc1O -0.39%
